Experimental data: article PMC10726135
Some of the results follow. At the low end of the ranking the order means little. Measured with an extract: partners may take part in the binding.

These sequences were tested against T1, HNF4alpha8 (COS-7 nuclear extract) (UniProt P41235-5) (assay: protein-binding microarray). Conditions: COS-7 nuclear extract on double-stranded Agilent 4x180k PBM; binding buffer, salt, pH and temperature not given; high values mean tight binding; double strand, one strand shown; sequences stand for … in …GCCTAGGGAGATTAGAGTATCGGTCGA.
T1 sequence: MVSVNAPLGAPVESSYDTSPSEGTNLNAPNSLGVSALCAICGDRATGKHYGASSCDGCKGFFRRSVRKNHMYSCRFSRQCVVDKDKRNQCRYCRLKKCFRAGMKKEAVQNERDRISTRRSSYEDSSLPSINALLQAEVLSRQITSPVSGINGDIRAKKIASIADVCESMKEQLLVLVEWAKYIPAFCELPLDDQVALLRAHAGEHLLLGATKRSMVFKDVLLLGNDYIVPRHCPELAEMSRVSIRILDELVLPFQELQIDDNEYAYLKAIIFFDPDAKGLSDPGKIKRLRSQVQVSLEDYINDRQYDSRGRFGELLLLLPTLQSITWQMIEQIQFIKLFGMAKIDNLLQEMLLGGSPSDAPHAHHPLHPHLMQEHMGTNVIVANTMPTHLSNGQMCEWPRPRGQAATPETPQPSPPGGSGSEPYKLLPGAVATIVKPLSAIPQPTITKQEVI

| Sequence | binding signal (log2 normalized intensity) |
| --- | --- |
| GACTTGAAGCCAGACTCTGCCATTTCCCAG | -1.36 |
| CCAGGGACTTACTCAACTAGCTCCATGTGA | -1.31 |
| GATGCATGATTGCTCTCTACTTGGTGGGAG | 0.236 |
| AAAAACATGGGTCTCTTCCTCAGTTTGTTC | 1.54 |
| GCTAGCATTGCTCAGACAGGGCAAAGGTGC | 3.57 |
| CTAAGAGCCGCAGAGCTAATGTTCAAATCC | -1.27 |
| GCTTTGGACTTTGGGCTGTGTTTTGCCCCT | 5.58 |
| ATAAGACACATTCCATGCTTATCAGTGTAC | 0.903 |
| CTCAAAGGAGGTCAGAACTGTGGACTCGCT | 1.89 |
| CTTGTTTGTCAAGTTTGGTAAGCAGACCCC | 2.66 |
| GGGTCCACATTCCAGGAATATTCAGATATT | -0.229 |
| ATTCCCTTTCTCCTCCCCTCCCCTCCCCCC | 6.78 |
| CGACTTGCCTTGTGTACTCTATCCAGTAGA | 1.14 |
| GGCCAGCGCCAGGCTGGGGGCAGAGTTCAC | 5.83 |
| GACCTCCTGTCTCATCCTGTGACCAAGAAT | 0.429 |
| CTCAGTCATACCACATGGATGGATTCAGAT | 0.256 |
| GGCCCAGGAAGCTCCAGCGGGGTTTGAATC | -1.32 |
| TCTTCCATCGGACTTTGATCTGCCACATAC | 6.72 |
| GTGTTTGTCCTTTGTTGCAATGCTGGAACA | 1.28 |
| TGCTGGAATGAGGGAGGCAGCCACCTAGGC | -1.31 |
| AAGCTCTGGAGTCCAAAGGTCAGCAAGCCT | 8.14 |
| AATGTATGGGCTATTTATGACGGTGTATGC | 0.766 |
| TCAAAGCATTCCACATTCTCCACTGGGAAG | -1.34 |
| TCTGCAGTTCTGGGCCAAAGGTCATACCTG | 6.41 |

| Sequence | binding signal (log2 normalized intensity) |
| --- | --- |
| CTACATTCAAATCCTTGCTCTGTGGTTTAG | 0.965 |
| AGGCCTATGGCGAAAAAGGAAATATCTTCC | -1.19 |
| CCACTGACAGGAGGTATGCCAGGAATGCTG | -1.35 |
| TTGTTTCATTGCACAGTTACTCCACAACTT | -0.186 |
| TGTGCAGCTTTGTGTAAAACTTCAAAGAAG | 0.796 |
| GCACAGTTACTCCACAACTTGTTCTATTGT | 0.623 |
| TGAGGCAAAATTCCTCGCTAGCTGTCAATC | -1.42 |
| TCAGAGCTTGAAAAGTCTTTCTGCCAAAGT | 0.513 |
| CCGGTTCCTCTGGATACCCTTCCCCCCAAG | 4.89 |
| TTTGGCTCTAGAGGAGTCCCCTTAAAATTC | 0.535 |
| CTGAGGTGGAAGGATCACCTGAGTCCAGAG | 0.477 |
| ATGTCTAACCTCCTGGGAATGCAGTCCAGT | 0.93 |
| CTTTAGAGAAACGCACTCGCCTCTCCTGTT | -0.995 |
| TAGATAAACTACTTTATATTCCTTTGTATC | 1.35 |
| TTATATCCCCTGCCTGGGTCCTGGGAGCAA | 0.574 |
| GGTATGTATGGAATGTCACTTTCTGACAGG | 1.19 |
| CAGAAAGTCCGGGGGCCAGTTCACTCAGTC | -1.17 |
| TGGGTGGAAGGAAAAGAGGAAAACCAGCTC | -1.39 |
| ATAAGGCTGCCTCCTATCCTCTGATCCCCA | 2.37 |
| TTTACAGGACATAGTCCTCTGCATATTTCT | 0.407 |
| GATCAAGAGGAAGATCTTTTTGATGACTTT | 0.895 |
| CAGAGTCCAGAGGTCACTTTGCTGCCTTTT | 5.34 |
| CAGGGAAGAGCCGGCCGGCGGGGTCACGTG | 3.97 |
| AAACCACACACTCCATAACTTTGGGACACT | -1.3 |

| Sequence | binding signal (log2 normalized intensity) |
| --- | --- |
| GGCTCAGGCCGGTTGGCCAGGTTCCTCCAC | -1.18 |
| AAAGATATCTCTGTGGATAGCTCAGGGATT | -0.846 |
| TGGATGGGGGAGGGGACTTCGCTGGAGGTG | -1.36 |
| GCTCCCAGTGCACACAGACTTTTGTGTGGT | 1.62 |
| CTGCTTTTATGACCTTTGACTGCAGAAGAT | 6.33 |
| CCTGCCTACATCAAGAGGATTACATAACCA | -1.13 |
| TGAGACATGAATCCATCCCACCTCACTTAT | 1.12 |
| TGGAATGCAAGACCTCAGCCCTCAGGGGCC | -1.32 |
| ACCCACCCACCTATGTCCTTATCCTCATTG | 0.831 |
| TATGTTAGACCAGCCAATTCTACTGGAAGT | -0.175 |
| TCTTCAGGAGGCACTGATAAGCGTATTTCA | -1.24 |
| CCTGACCCCCAGTGGAATGTGCCCTTTGAC | 5.75 |
| CATAGATCCCACCATTCCCAGTTGTCTGAT | 1.01 |
| GTCCATGCTATTAAGCACTAGAAAGTCTTG | -0.893 |
| GGTGGCTCCCCCAGGCGACTGGGCCAGGAG | 1.18 |
| ACAGCAACTGTAGTGCATAGTGGGTTTCGG | 0.0987 |
| GAAACATGCGATACTTGACCTGCAATGAAA | 1.02 |
| TTCCACCTTTGCCCTCCAAACTGAGAGATT | 3.05 |
| AAATGGAACAGTAAGTGTTAATGGCACTTC | 0.431 |
| AATGATAAGATATATGACTCTAGATTGTTT | 0.836 |
| AGGCTTTAGATAAGGTATGTGGGAGCGGGG | -1.23 |
| TGCTTTGGGTGGATTTGGAGATCAGAGTCC | 3.7 |
| CCTATGTCTACGTCTTGTCTCTTTTGTCCA | 1.96 |
| GTTGCACTCACTAGCATTAGGACCTGTTTG | 0.19 |
